Consider 87 compounds from publication PMC4336329 (PLoS ONE, 2015).

Structures are written as SMILES. Hit rate of the full screen: of about 310,000 compounds, about 2,200 (0.71%) showed an effect of 50% or more. The effect is printed as a negative number. This is one part of the list.

human ether-à-go-go-related gene (hERG) potassium channel, sequence (Q12809 whole entry, looked up): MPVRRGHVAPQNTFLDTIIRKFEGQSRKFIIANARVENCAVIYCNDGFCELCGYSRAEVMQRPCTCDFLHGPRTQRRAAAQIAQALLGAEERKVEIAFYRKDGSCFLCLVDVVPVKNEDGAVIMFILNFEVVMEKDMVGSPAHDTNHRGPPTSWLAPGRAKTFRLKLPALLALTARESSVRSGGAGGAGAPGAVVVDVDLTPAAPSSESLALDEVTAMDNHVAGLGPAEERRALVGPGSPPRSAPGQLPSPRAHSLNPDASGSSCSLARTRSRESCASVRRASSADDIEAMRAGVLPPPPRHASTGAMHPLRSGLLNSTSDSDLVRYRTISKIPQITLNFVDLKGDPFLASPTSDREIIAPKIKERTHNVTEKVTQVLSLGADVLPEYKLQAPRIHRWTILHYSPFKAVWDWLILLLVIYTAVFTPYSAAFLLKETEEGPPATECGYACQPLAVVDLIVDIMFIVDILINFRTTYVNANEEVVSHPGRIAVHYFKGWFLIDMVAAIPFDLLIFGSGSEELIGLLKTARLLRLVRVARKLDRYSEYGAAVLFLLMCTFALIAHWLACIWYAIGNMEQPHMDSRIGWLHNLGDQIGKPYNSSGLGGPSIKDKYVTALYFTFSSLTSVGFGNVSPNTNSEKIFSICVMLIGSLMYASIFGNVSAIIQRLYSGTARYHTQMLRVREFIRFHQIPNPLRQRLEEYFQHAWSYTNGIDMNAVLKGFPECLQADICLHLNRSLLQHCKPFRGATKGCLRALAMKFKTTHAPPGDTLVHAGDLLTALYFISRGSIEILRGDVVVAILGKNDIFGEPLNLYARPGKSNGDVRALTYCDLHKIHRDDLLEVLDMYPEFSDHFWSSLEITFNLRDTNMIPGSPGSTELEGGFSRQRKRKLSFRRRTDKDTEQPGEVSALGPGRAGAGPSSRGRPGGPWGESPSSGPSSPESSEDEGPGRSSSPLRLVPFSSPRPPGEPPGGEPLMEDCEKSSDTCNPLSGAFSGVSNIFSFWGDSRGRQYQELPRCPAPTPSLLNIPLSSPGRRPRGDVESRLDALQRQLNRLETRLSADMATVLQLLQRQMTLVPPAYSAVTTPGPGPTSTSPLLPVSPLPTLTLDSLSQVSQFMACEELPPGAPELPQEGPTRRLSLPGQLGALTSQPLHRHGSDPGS

The assay concerns the target human ether-à-go-go-related gene (hERG) potassium channel (human, UniProt Q12809). Put plainly: primary screen, population patch clamp on CHO cells stably expressing hERG.
Take `O=C(O)CCC(=O)N(Cc1ccco1)C1CC(=O)N(c2ccccc2)C1=O` (stereo not drawn): the “hERG current change (%, negative = inhibition) at 1uM” value turned out to be 12.5%. For `Cc1ccccc1NC(=O)COC(=O)/C=C/c1cccc(C(F)(F)F)c1`, the “hERG current change (%, negative = inhibition) at 1uM” value is 0.0962%. Regarding `CC(=O)Nc1cccc(NC(=O)Nc2ccc(F)cc2F)c1`, the “hERG current change (%, negative = inhibition) at 1uM” value is recorded as 15.3%. As for `CC(CNC(=O)COc1ccccc1)OC(=O)Nc1ccc(Cl)c(Cl)c1` (stereo not drawn), the “hERG current change (%, negative = inhibition) at 1uM” value came to 8.02%. Then `c1ccc(CCC2CCCCN2Cc2cn[nH]c2-c2cc3ccccc3o2)nc1` (stereo not drawn), with -67%; and `CCOC(=O)c1cn[nH]c1NC(=S)Nc1ccc(OC)cc1`, with 13.3%; and `COc1ccccc1N1CCN(C(=O)C2CCN(S(=O)(=O)c3ccccc3F)CC2)CC1`, with 6.93%. With `COc1ccc(/C(O)=C2\C(=O)C(=O)N(CCN(C)C)C2c2cccc(OC)c2OC)cc1` (stereo not drawn) the figure was 10.7%. With `COc1cc(/C=N/NC(=O)Cc2ccc(Br)cc2)cc(OC)c1O` the figure was 15.4%; with `Cc1oc2c(cc(NS(=O)(=O)c3ccc4c5c(cccc35)C(=O)N4)c3ccccc32)c1C(=O)OC(C)C`, 9.59%; with `CC1CC(C)CN(C(=O)Cn2ncc3c([nH]c4ccccc43)c2=O)C1` (stereo not drawn), 20.6%. For `O=C(NC1CC1)C1=C[C@H](c2csc3ccccc23)C[C@H](OCCCCO)O1`, the “hERG current change (%, negative = inhibition) at 1uM” value is reported as 8.58%. For `Cc1cc(C)n2nc(CC(=O)NNC(=O)c3ccccc3Cl)nc2n1`, the “hERG current change (%, negative = inhibition) at 1uM” value was 17.8%. With `O=S(=O)(c1ccc(F)cc1)N(CCO)CC(O)Cn1c2ccccc2c2ccccc21` (stereo not drawn) the figure was 11.1%; with `COCc1cc(C)nc(OCC(=O)N/N=C/c2cccc(OC)c2)c1C#N`, 8.44%. With `CNC(=O)COC(=O)c1cc(-c2ccc(OC)cc2)nc2ccccc12` the figure was 0.122%; with `COc1ccc2[nH]cc(CCN(C)C)c2c1`, 9.75%; with `CC1S/C(=N/N=C/c2cccs2)NC1=O` (stereo not drawn), 8.3%.

Take `O=C1C=C(c2cc3ccccc3s2)C[C@@H](c2ccc3c(c2)OCO3)C1`: the “hERG current change (%, negative = inhibition) at 1uM” value came to 8.75%.

For `O=C(Nc1ccc2c(c1)CCC2)c1c(F)cccc1Cl`, the “hERG current change (%, negative = inhibition) at 1uM” value was determined as 22.5%. With `Cc1cccc(NC(=O)c2cc3ccccc3nc2C)c1` the figure was 15.1%; with `O=C(Nc1cccc2ccccc12)c1cnsn1`, 7.68%. With `c1ccc(SCc2nc(-c3ccncc3)n[nH]2)nc1` the figure was 5.95%; with `Cc1cc(C)cc(NC(=O)C(Sc2ncnc3ccccc23)c2ccccc2)c1` (stereo not drawn), 18%; with `O=C(NCC1(c2ccccc2)CCCC1)C(=O)N1CCOCC1`, 10.2%. With `CCN1CCN(c2ccc(S(=O)(=O)N3CCCCC3)cc2NC(=O)COc2ccccc2)CC1` the figure was -8.8%; with `Cc1ccc(/C=C(\CCC(=O)O)c2nc3ccccc3s2)cc1[N+](=O)[O-]`, 13.1%; with `CCOC(=O)c1nn(-c2ccccc2)c2nnc(Cc3ccccc3)c(=O)n12`, 6.15%. Consider `Cc1ccc(-c2csc(N(Cc3ccccc3)C(=O)COc3ccccc3)n2)cc1`, for which the “hERG current change (%, negative = inhibition) at 1uM” value is 7.31%. With `O=C1C(c2ccc(F)cc2)N(Cc2ccc3c(c2)OCO3)C(=O)CN1C1CCCC1` (stereo not drawn), the “hERG current change (%, negative = inhibition) at 1uM” value came to 9.97%. For `CC1=C(C(N)=O)C(c2ccc(Br)cc2)n2nc(CCCO)nc2N1` (stereo not drawn), the “hERG current change (%, negative = inhibition) at 1uM” value worked out at 13.1%. With `Cc1ccc(CN2CC(C(=O)N3CCN(S(=O)(=O)c4ccc(C(C)C)cc4)CC3)CC2=O)cc1` (stereo not drawn) the figure was -7.96%. Turning to `Cc1ccc(Cn2c(=O)c3ccccc3n3c(CCC(=O)NCCN4CCOCC4)nnc23)cc1`, the “hERG current change (%, negative = inhibition) at 1uM” value is recorded as -0.353%. With `O=C(Nc1nnc(S(=O)(=O)N2CCOCC2)s1)c1ccccc1Cl` the figure was 4.11%.

Consider `COc1cc2cc(CCCOC(=O)c3ccc4c(c3)OCO4)oc(=O)c2cc1OC`, for which the “hERG current change (%, negative = inhibition) at 1uM” value was found to be 12.1%.

`COc1ccccc1NC(=O)Nc1ccc2c(c1)CCC2`: the “hERG current change (%, negative = inhibition) at 1uM” value is listed as 8.95%.

In the case of `CSc1ccc(/C=N/NC(=O)c2cc(O)cc(O)c2)cc1`, the “hERG current change (%, negative = inhibition) at 1uM” value stood at 6.37%.

`C#CC[N+]1(C)[C@@H]2CC[C@H]1CC(OC(=O)C(CO)c1ccccc1)C2.[Br-]` (stereo partly drawn): the “hERG current change (%, negative = inhibition) at 1uM” value came to 9.58%. `Cc1cc([N+](=O)[O-])ccc1NCc1ccco1`: the “hERG current change (%, negative = inhibition) at 1uM” value was 6.94%. Then `CC(C)(C)c1ccc(NC(=O)NC2CCCc3ccccc32)cc1` (stereo not drawn), with 17.9%; and `O=C(/C=C/c1ccc(Cl)cc1)Nc1ccc(Br)cn1`, with 7.07%. With `O=C(NCc1ccccc1)Nc1cc(Cl)ccc1Cl`, the “hERG current change (%, negative = inhibition) at 1uM” value is 14.8%. Then `O=C(COc1ccc([N+](=O)[O-])cc1Cl)Nn1cnnc1`, with 12.2%; and `CSc1cccc(NC(C)C(=O)NCc2ccccc2)c1` (stereo not drawn), with 31.8%.

As to `N/C(=N\OC(=O)c1cc(-c2ccccc2)nc2ccccc12)c1ccc(Cl)cc1`, the “hERG current change (%, negative = inhibition) at 1uM” value is recorded as -7.02%.

Turning to `CCN=c1scc(C)n1/N=C/c1cc(Br)c(O)c(OC)c1`, the “hERG current change (%, negative = inhibition) at 1uM” value turned out to be 6.63%.

`Cc1cc(C)n2nc(SCCOc3ccc(F)cc3)nc2n1`: the “hERG current change (%, negative = inhibition) at 1uM” value is -13.1%.

`CCCC(c1nnnn1C(C)(C)CC)N1CCN(C(=O)c2ccco2)CC1.Cl` (stereo not drawn): the “hERG current change (%, negative = inhibition) at 1uM” value is -7.15%. As to `COc1ccccc1NS(=O)(=O)c1cc(NC(=O)c2ccc3ccccc3n2)ccc1Cl`, the “hERG current change (%, negative = inhibition) at 1uM” value is listed as 12.4%.

`CCC(=O)N1CCc2cc(S(=O)(=O)CCC(=O)Nc3ccc(C)cn3)ccc21`: the “hERG current change (%, negative = inhibition) at 1uM” value turned out to be 4.89%. Then `CCN(C(=O)COC(=O)C1CCN(S(=O)(=O)c2ccc(C)c(C)c2)CC1)C1CCS(=O)(=O)C1` (stereo not drawn), with 13.2%; and `COc1ccc(-n2c(O)c(C(C)=NCCc3c[nH]c4ccccc34)c(=O)[nH]c2=O)cc1`, with 17.3%. Then `O=C(Nc1cc(C(F)(F)F)ccc1Cl)C(Sc1nnc(-c2cccs2)o1)c1ccccc1` (stereo not drawn), with 11.3%; and `S=c1nc(-c2cc(Cl)cc(Cl)c2)[nH][nH]1`, with 13.3%.

In the case of `O=c1cc(-c2ccccc2F)nc(-c2ccccc2F)o1`, the “hERG current change (%, negative = inhibition) at 1uM” value came out at 9.54%. With `Cc1cc(O)ccc1N/C=C(\C#N)c1nc2ccccc2o1` the figure was 13.5%. Then `CCOP(=O)(OCC)OCC`, with 12.7%; and `CC(C)(C)NC(=O)C(=O)NNC(=O)C12CC3CC(CC(C3)C1)C2`, with 9.04%; and `COC(=O)c1ccc(COC(=O)C2CC(O)CN2S(=O)(=O)c2ccc([N+](=O)[O-])cc2)cc1` (stereo not drawn), with 3.85%. As for `Nc1nc(SCC(=O)Nc2ncc(C(F)(F)F)cc2Cl)n[nH]1`, the “hERG current change (%, negative = inhibition) at 1uM” value is given as 11.5%. With `CC(CCc1ccccc1)NC(C)C(O)c1ccc(O)cc1.Cl` (stereo not drawn) the figure was -48.6%.

`COc1ccc(-c2cc(CCCC(=O)NCCc3cc(OC)ccc3OC)no2)cc1`: the “hERG current change (%, negative = inhibition) at 1uM” value was 6.62%.

As to `O=C(c1cc2ncc(Br)cn2n1)N1CCOCC1`, the “hERG current change (%, negative = inhibition) at 1uM” value amounted to 13.2%. With `O=C(C[n+]1cccc(NC(=O)c2ccccc2)c1)c1cccc([N+](=O)[O-])c1.[Br-]` the figure was -39.6%; with `CCOC(=O)N1CCC(N2C(=O)c3ccc(C(=O)Nc4cccc(OC)c4)cc3C2=O)CC1`, 9.99%; with `Cc1ccc(-c2nnc(-c3ccccc3Br)o2)cc1`, 3.17%. Regarding `Cc1ccc2nc(C)cc(N/N=C/c3cccnc3)c2c1`, the “hERG current change (%, negative = inhibition) at 1uM” value is recorded as 2.91%.

In the case of `Cc1ccccc1CSc1n[nH]c(NS(=O)(=O)c2ccccc2)n1`, the “hERG current change (%, negative = inhibition) at 1uM” value stood at 10.4%. Take `COc1ccc(O)c(CN2CCN(CCc3ccccc3)C(CCO)C2)c1` (stereo not drawn): the “hERG current change (%, negative = inhibition) at 1uM” value is -1.29%. Turning to `CCOc1ccc(S(=O)(=O)N(CC)CC(=O)N2CCOCC2)cc1C`, the “hERG current change (%, negative = inhibition) at 1uM” value came out at 15.9%.

For `COc1ccc(N(C)S(=O)(=O)c2cccc(C(=O)NC3CCCC(C)C3C)c2)cc1` (stereo not drawn), the “hERG current change (%, negative = inhibition) at 1uM” value is listed as -4.13%.

Consider `COc1ccc(NC(=O)c2cc(-c3ccc(C)cc3)on2)cc1OC`, for which the “hERG current change (%, negative = inhibition) at 1uM” value turned out to be 14.5%. For the compound `CN(C)c1cc[n+](CC(=O)c2cccs2)cc1.[Cl-]`, the “hERG current change (%, negative = inhibition) at 1uM” value is recorded as 10%.

On to `CCCn1c(Sc2nc3c(c(=O)[nH]c(=O)n3C)n2CCC)nc2c1c(=O)[nH]c(=O)n2C`, for which the “hERG current change (%, negative = inhibition) at 1uM” value is given as 15%.

Consider `Cc1ccc(S(=O)(=O)N2CCN(C(=O)COC(=O)CCCOc3ccccc3)CC2)c(C)c1`, for which the “hERG current change (%, negative = inhibition) at 1uM” value worked out at 5.27%. As to `COc1ccc(NS(=O)(=O)c2cccc(C(=O)NCC3(N(C)C)CCCCC3)c2)cc1`, the “hERG current change (%, negative = inhibition) at 1uM” value is 2.4%.

Turning to `COc1ccccc1N(C)S(=O)(=O)c1ccc(C)c(C(=O)NCc2ccccn2)c1`, the “hERG current change (%, negative = inhibition) at 1uM” value amounted to 6.92%.

As for `O=[N+]([O-])c1ccc(Cl)cc1Sc1cccc2cccnc12`, the “hERG current change (%, negative = inhibition) at 1uM” value is listed as 14.1%. With `c1cc2c3c(cccc3c1)NC1(CCC3(CC1)Nc1cccc4cccc(c14)N3)N2` the figure was 13.7%. Turning to `COc1ccc(NC(=O)Nc2nc3c(s2)CCCC3)cc1`, the “hERG current change (%, negative = inhibition) at 1uM” value is recorded as -0.507%. On to `O=C(COC(=O)c1ccc(F)cc1F)NC1CC1`, for which the “hERG current change (%, negative = inhibition) at 1uM” value is 22.9%.

For the compound `COCCCn1c(-c2ccco2)nc2ccccc2c1=O`, the “hERG current change (%, negative = inhibition) at 1uM” value was determined as 0.404%. With `Cc1cc(C)cc(N2C(=O)NC(=O)/C(=C\c3cccn3-c3ccccc3)C2=O)c1` the figure was -0.0202%; with `CC(C)NC(=S)NN=C1CCC(c2ccccc2)CC1` (stereo not drawn), 11.9%; with `O=c1c2c(nc3c(-c4ccc(Cl)cc4)c[nH]n13)CCCC2`, -10.5%. With `CCOC(=O)c1c(C)oc2ccc(OS(C)(=O)=O)cc12` the figure was 9.28%; with `Cc1ccc(CONC(=O)c2cccc([N+](=O)[O-])c2)cc1`, -0.0368%.
